{"source": "patent US20220185900A1", "target": "human RET on cells (MCF7/SRE-Luc; HEK293/hGFRα3/hRET/SRE-Luc; HEK293/hGFRα1/hRET/SRE-Luc) (human), P07949", "experiment": "cell-based or functional assay", "data": [{"binder": "H4H8044P (antibody, human IgG4, V domains shown) VH: QVQLVESGGGVVQPGRSLRLSCAASGFTFSGSGMHWVRQAPGKGLEWVAVIWEDGSNKYYADSVRGRFTISRDNFKNTLYLQMNSLRAEDTAVYYCARQTMVRGVIRFYYYYYGMDVWGQGTTVTVSS VL: [sequence of about 100 residues omitted]PTFGQGTKVEIK", "values": [{"measurement": "293/hGFRα3/hRET SRE-luc % Blocking", "value": 77, "unit": "%"}, {"measurement": "293/hGFRα3/hRET/SRE-Luc IC50", "value": 1.6, "unit": "nM"}, {"measurement": "MCF7/SRE-Luc % Activation", "value": 2, "unit": "%"}, {"measurement": "MCF7/SRE-Luc Avg % Blocking", "value": 85, "unit": "%"}, {"measurement": "MCF7/SRE-luc Avg. IC50", "value": 2.1, "unit": "nM"}]}]}
